Source: patent publication US20260209350A1 (Alector, published 2026)
One block for each binder: values may come before it.

How the values were obtained:
[1] = target: T1, mouse TREM2 Fc fusion protein (mouse, UniProt Q99NH8 19-171); assay: ForteBio or MSD-SET, avid
T1 construct: also called mTREM2-Fc; not shown: Fc part not specified
T1 sequence (looked up): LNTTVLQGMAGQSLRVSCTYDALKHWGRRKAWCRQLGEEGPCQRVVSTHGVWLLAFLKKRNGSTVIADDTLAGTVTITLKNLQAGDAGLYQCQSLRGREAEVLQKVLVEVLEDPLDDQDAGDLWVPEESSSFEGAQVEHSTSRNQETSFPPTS

[2] = target: T2, human TREM2 Fc fusion protein (human, UniProt Q9NZC2 19-174); assay: ForteBio or MSD-SET, avid
T2 construct: also called hTREM2-Fc; not shown: Fc part not specified
T2 sequence: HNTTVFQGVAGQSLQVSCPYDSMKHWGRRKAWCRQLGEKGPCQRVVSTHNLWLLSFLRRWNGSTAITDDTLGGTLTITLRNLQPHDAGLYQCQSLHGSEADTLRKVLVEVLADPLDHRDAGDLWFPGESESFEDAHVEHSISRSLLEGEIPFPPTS

mouse TREM2 on cells = target: T3, mouse TREM2 on cells (mouse, UniProt Q99NH8 19-227); assay: FACS, mTrem2 cells
T3 construct: whole, on cells; Used for the recombinant protein on BWZ/BW cells (with mouse DAP12) and for the native protein on mouse macrophages and dendritic cells; the cell type stands under assay; also called mTREM2; mTrem2
T3 sequence (looked up): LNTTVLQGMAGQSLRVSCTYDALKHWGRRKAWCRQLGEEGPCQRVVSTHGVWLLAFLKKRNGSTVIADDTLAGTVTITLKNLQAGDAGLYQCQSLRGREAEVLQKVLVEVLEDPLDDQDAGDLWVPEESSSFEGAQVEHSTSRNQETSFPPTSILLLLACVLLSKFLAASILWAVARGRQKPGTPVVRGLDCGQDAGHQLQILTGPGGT

[3] = target: T4, human monomeric His tagged TREM2 protein (human, UniProt Q9NZC2 19-174); assay: ForteBio or MSD-SET, monovalent
T4 construct: also called hTREM2-HIS
T4 sequence: T2 sequence

Kd [1]: 6.83 nM
Kd [2]: 0.967 nM
MFI (mouse TREM2 on cells): 919 MFI
B1: Ab23 (antibody, human IgG1, V domains shown)
VH: [… about 100 residues …]LGGHSMDVWGQGTTVTVSS
VL: DIVMTQSPDSLAVSLGERATINCKSSQSVLYSSNNKNYLAWYQQKPGQPPKLLISWASTRESGVPDRFSGSGSGTDFTLTISSLQAEDVAVYYCQQAYLPPITFGGGTKVEIK
notes: human IgG1

Kd [3]: 5.72 nM
Kd [2]: 0.854 nM
MFI (mouse TREM2 on cells): 3900 MFI
B2: Ab59 (antibody, human IgG1, V domains shown)
VH: [… about 100 residues …]GGVWYSLFDIWGQGTMVTVSS
VL: DIQMTQSPSSLSASVGDRVTITCQASQDISNYLNWYQQKPGKAPKLLIYDASNLETGVPSRFSGSGSGTDFTFTISSLQPEDIATYYCQQHIALPFTFGGGTKVEIK
notes: human IgG1
